Measurements reported in PMC8725944, “Design and synthesis of chromone-nitrogen mustard derivatives and evaluation of anti-breast cancer activity” (Journal of Enzyme Inhibition and Medicinal Chemistry, 2021).

Test system: human mammary gland tumour cell line MCF-7
Experiment: CCK-8 assay, antiproliferative activity against MCF-7
Settings: MCF7, 72 h, read-out: IC50 MCF-7

IC50, > 20 µM:
Cc1ccc2occ(CO)c(=O)c2c1 [Compound 15]
COc1ccc2occ(CO)c(=O)c2c1 [Compound 16]
Cc1ccc2occ(CN)c(=O)c2c1 [Compound 19]
COc1ccc2occ(CN)c(=O)c2c1 [Compound 20]
